{
  "source": "paper PMC4336329",
  "about": "(PLoS ONE, 2015)",
  "note": "The campaign covered roughly 310,000 compounds. About 14,000 (4.5%) showed an effect of 50% or more. The effect is printed as a negative number. The list shows a part of the results.",
  "data": [
    {"biological_target": "human ether-à-go-go-related gene (hERG) potassium channel (human, UniProt Q12809)", "sequence (Q12809 whole entry, looked up)": "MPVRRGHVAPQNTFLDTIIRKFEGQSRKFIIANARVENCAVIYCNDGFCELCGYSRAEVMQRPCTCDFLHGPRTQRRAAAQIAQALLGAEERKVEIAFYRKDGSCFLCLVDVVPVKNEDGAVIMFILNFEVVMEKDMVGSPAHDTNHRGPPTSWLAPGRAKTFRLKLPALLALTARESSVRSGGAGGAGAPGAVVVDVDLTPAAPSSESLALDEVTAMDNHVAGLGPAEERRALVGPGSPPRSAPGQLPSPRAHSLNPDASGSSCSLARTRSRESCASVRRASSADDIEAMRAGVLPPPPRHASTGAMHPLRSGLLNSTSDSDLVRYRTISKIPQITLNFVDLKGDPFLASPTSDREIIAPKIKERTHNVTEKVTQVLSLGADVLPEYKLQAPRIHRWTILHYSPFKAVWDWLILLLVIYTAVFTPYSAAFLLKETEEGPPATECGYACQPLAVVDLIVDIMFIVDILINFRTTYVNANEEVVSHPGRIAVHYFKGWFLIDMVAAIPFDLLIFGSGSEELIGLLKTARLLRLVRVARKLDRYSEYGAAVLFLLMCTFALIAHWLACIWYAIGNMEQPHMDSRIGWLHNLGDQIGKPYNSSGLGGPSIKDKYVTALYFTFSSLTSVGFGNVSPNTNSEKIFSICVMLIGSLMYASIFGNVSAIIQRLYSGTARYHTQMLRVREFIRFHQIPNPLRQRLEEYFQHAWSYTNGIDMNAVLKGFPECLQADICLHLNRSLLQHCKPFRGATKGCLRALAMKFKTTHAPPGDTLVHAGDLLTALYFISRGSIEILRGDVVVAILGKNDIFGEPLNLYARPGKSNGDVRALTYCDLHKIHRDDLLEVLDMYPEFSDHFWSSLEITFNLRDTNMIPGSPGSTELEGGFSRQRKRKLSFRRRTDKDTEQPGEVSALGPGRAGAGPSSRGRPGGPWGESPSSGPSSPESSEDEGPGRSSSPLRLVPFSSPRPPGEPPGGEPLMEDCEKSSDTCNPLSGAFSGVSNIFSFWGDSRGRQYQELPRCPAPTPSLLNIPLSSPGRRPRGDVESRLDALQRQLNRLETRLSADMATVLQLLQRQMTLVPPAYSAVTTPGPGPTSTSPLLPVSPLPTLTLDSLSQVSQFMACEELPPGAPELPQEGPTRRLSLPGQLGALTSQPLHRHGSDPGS", "test": "primary screen, population patch clamp on CHO cells stably expressing hERG", "units": {"hERG current change (%, negative = inhibition) at 10uM": "%"}, "values": [
      {"compound": "CCS(=O)c1ccccc1C(=O)O", "note": "(stereo not drawn);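 note: peak tail current of the secondary pulse compared with the same well before compound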", "hERG current change (%, negative = inhibition) at 10uM": 7.31},
      {"compound": "CCOc1[nH]n(-c2ccc(Cl)cc2)c(=O)c1C=NCC(=O)OC", "hERG current change (%, negative = inhibition) at 10uM": -33.2},
      {"compound": "Cc1ccc(C)c(-n2ccnc2SCC(=O)O)c1", "hERG current change (%, negative = inhibition) at 10uM": 2.03},
      {"compound": "COc1ccc(-n2nc(C(=O)NCC(=O)O)c3ccccc3c2=O)cc1", "hERG current change (%, negative = inhibition) at 10uM": 17.7},
      {"compound": "COc1ccc(OC)c(NC(=O)CSc2sc3c(O)cc(=O)[nH]c3c2C#N)c1", "hERG current change (%, negative = inhibition) at 10uM": -19.4},
      {"compound": "Cc1cccc(CN2CCN(CC(=O)N3CCCC3)C2=O)c1", "hERG current change (%, negative = inhibition) at 10uM": -5.53},
      {"compound": "C=C(C)CSc1nnc(-c2ccccc2)n1N", "hERG current change (%, negative = inhibition) at 10uM": -1.72},
      {"compound": "CC1CCN(S(=O)(=O)c2ccc(C(=O)N(C)C3CCS(=O)(=O)C3)cc2)CC1", "note": "(stereo not drawn)", "hERG current change (%, negative = inhibition) at 10uM": 4.83},
      {"compound": "CN(C)c1nc(N)nc(-c2ccco2)n1", "hERG current change (%, negative = inhibition) at 10uM": 9.78},
      {"compound": "COCCN(Cc1cc2ccc(C)cc2[nH]c1=O)S(=O)(=O)c1ccccc1", "hERG current change (%, negative = inhibition) at 10uM": -16.3},
      {"compound": "COc1ccc(-c2cc(C(=O)N3CCN(c4ccccc4)CC3)no2)cc1", "hERG current change (%, negative = inhibition) at 10uM": 12.1},
      {"compound": "COc1cc(OC)c(-c2noc(C(=O)OC(C)(C)C)c2C(=O)OC(C)(C)C)c(OC)c1", "hERG current change (%, negative = inhibition) at 10uM": 0.93},
      {"compound": "CCc1cc2c(=O)c(-c3nc4ccccc4[nH]3)coc2cc1OC(=O)N1CCOCC1", "hERG current change (%, negative = inhibition) at 10uM": -10.7},
      {"compound": "CCOc1ccc(C(=O)NCC(=O)OCC(=O)N2CCCCC2)cc1", "hERG current change (%, negative = inhibition) at 10uM": 5.79},
      {"compound": "CC1Oc2ccccc2N(CC(=O)N2CCCc3ccccc32)C1=O", "note": "(stereo not drawn)", "hERG current change (%, negative = inhibition) at 10uM": -16.3},
      {"compound": "O=C(N/N=C/c1cccc(O)c1)c1ccc(NC(=O)C2CCCCC2)cc1", "hERG current change (%, negative = inhibition) at 10uM": 33},
      {"compound": "COc1ccc2nc(NC(=O)CSC(C)C(=O)Nc3cc(C)on3)sc2c1", "note": "(stereo not drawn)", "hERG current change (%, negative = inhibition) at 10uM": -11.5},
      {"compound": "COc1cccc(C2=NOC(C(=O)NC3CCCCC3)C2)c1", "note": "(stereo not drawn)", "hERG current change (%, negative = inhibition) at 10uM": -11.6},
      {"compound": "COc1cccc(C(=O)n2c(SC)nc3cc4c(cc32)OCCO4)c1", "hERG current change (%, negative = inhibition) at 10uM": -17.2},
      {"compound": "O=C(NNC1=NS(=O)(=O)c2ccccc21)c1ccc([N+](=O)[O-])cc1", "hERG current change (%, negative = inhibition) at 10uM": 7.45},
      {"compound": "CCOC(=O)c1sc2cc([N+](=O)[O-])cc(SCCO)c2c1N", "hERG current change (%, negative = inhibition) at 10uM": 8.39},
      {"compound": "CN(C)C(=O)CCC(=O)N1CCCC(N2CCN(c3cccc(C(F)(F)F)c3)CC2)C1", "note": "(stereo not drawn)", "hERG current change (%, negative = inhibition) at 10uM": -12.3},
      {"compound": "N#Cc1cccc(NC(=O)CSc2ccc3c4c(cccc24)C(=O)c2ccccc2-3)c1", "hERG current change (%, negative = inhibition) at 10uM": 23.4},
      {"compound": "O=C(CNS(=O)(=O)c1ccc([N+](=O)[O-])cc1)N/N=C/c1ccc(O)cc1O", "hERG current change (%, negative = inhibition) at 10uM": 23.2},
      {"compound": "COc1cccc(C(=O)CN2CCN(S(=O)(=O)c3cccc([N+](=O)[O-])c3)CC2)c1", "hERG current change (%, negative = inhibition) at 10uM": -9.29},
      {"compound": "Cc1ccc2nc(SCC(=O)Nc3cccc(S(N)(=O)=O)c3)[nH]c2c1", "hERG current change (%, negative = inhibition) at 10uM": 13.5},
      {"compound": "CCN(CC)c1nc(=S)nc(NC(C)(C)C)[nH]1", "hERG current change (%, negative = inhibition) at 10uM": -21.3},
      {"compound": "O=C(NCc1cccnc1)c1cccn1-c1ncc(C(F)(F)F)cc1Cl", "hERG current change (%, negative = inhibition) at 10uM": 14.1},
      {"compound": "Oc1cncc(-c2cccnc2)c1", "hERG current change (%, negative = inhibition) at 10uM": 6.63},
      {"compound": "COc1ccc(C2=CC3=C(Br)C(=O)C(C)(OC(=O)c4cccs4)C(=O)C3=CO2)cc1", "note": "(stereo not drawn)", "hERG current change (%, negative = inhibition) at 10uM": 8.96},
      {"compound": "O=C(NCc1ccc(F)cc1)C(c1ccc(Cl)cc1)N(C(=O)c1csnn1)C1CC1", "note": "(stereo not drawn)", "hERG current change (%, negative = inhibition) at 10uM": -0.0702},
      {"compound": "CCOc1ccc2nc(NC(=O)C34CC5CC(CC(NC(C)=O)(C5)C3)C4)sc2c1", "hERG current change (%, negative = inhibition) at 10uM": -13.5},
      {"compound": "CCOc1cc2c(cc1OCC)-n1cccc1C(c1ccccc1F)NC2.Cl", "note": "(stereo not drawn)", "hERG current change (%, negative = inhibition) at 10uM": -4.4},
      {"compound": "CC(=O)Nc1cc(NC(C)=O)c2nc(N)sc2c1.Cl", "hERG current change (%, negative = inhibition) at 10uM": 12.3},
      {"compound": "CN(C)CCN(Cc1ccccc1)C(=O)C1CCN(c2ncnc3c2nc2n3CCCCC2)CC1", "hERG current change (%, negative = inhibition) at 10uM": -15.1},
      {"compound": "COCCn1c(SCCOc2ccccc2)nc2ccccc2c1=O", "hERG current change (%, negative = inhibition) at 10uM": -6.1},
      {"compound": "COC(=O)c1oc2ccc(Br)cc2c1NC(=O)CN1CCN(C)CC1", "hERG current change (%, negative = inhibition) at 10uM": -62.3},
      {"compound": "CC(CNC(=O)Cn1ccc2cc(S(=O)(=O)N3CCCC3)ccc21)c1ccccc1", "note": "(stereo not drawn)", "hERG current change (%, negative = inhibition) at 10uM": -9.17},
      {"compound": "CCOc1ccc(NC(=O)[C@@H](NC(=O)c2ccccc2)[C@@H](C)CC)cc1", "hERG current change (%, negative = inhibition) at 10uM": 2.26},
      {"compound": "O=C(NCc1cccnc1)c1cccc2c1C(=O)N(Cc1cccnc1)C2", "hERG current change (%, negative = inhibition) at 10uM": -11},
      {"compound": "CCCCOc1cc(=O)[nH]c(=O)[nH]1", "hERG current change (%, negative = inhibition) at 10uM": 17.3},
      {"compound": "O=C(NC(=S)NCCO)c1cn(-c2ccccc2)nc1-c1ccccc1", "hERG current change (%, negative = inhibition) at 10uM": 22.9},
      {"compound": "Cc1ccc(S(=O)(=O)NN2C(=O)c3ccccc3NC2C)cc1", "note": "(stereo not drawn)", "hERG current change (%, negative = inhibition) at 10uM": -7.72},
      {"compound": "O=C(O)CNS(=O)(=O)c1ccc(Br)s1", "hERG current change (%, negative = inhibition) at 10uM": -3.74},
      {"compound": "CCOC(=O)C(NC(=O)C1CCCN1C(=O)OCc1ccccc1)C(=O)OCC", "note": "(stereo not drawn)", "hERG current change (%, negative = inhibition) at 10uM": -0.938},
      {"compound": "COc1ccc(N2C(=O)C(Cl)=C(N3CCCC(C)C3)C2=O)cc1", "note": "(stereo not drawn)", "hERG current change (%, negative = inhibition) at 10uM": 4.81},
      {"compound": "COc1ccc(-c2noc(N3CCC(C(=O)NCc4ccccc4Cl)CC3)n2)cc1", "hERG current change (%, negative = inhibition) at 10uM": -11.9},
      {"compound": "Cc1cccc(Nc2ccc([N+](=O)[O-])cc2C(=O)O)c1", "hERG current change (%, negative = inhibition) at 10uM": 3.44},
      {"compound": "CCCCN(CCCC)C(=O)C1CC=CCC1C(=O)O", "note": "(stereo not drawn)", "hERG current change (%, negative = inhibition) at 10uM": 6.74},
      {"compound": "O=C(O)c1ccc2c(c1)C(=O)N(c1ccccc1-c1ccccc1)C2=O", "hERG current change (%, negative = inhibition) at 10uM": 5.93},
      {"compound": "CC(=O)C1=C(O)C(=O)N(c2ccc(Br)cc2)C1c1ccc(Cl)cc1", "note": "(stereo not drawn)", "hERG current change (%, negative = inhibition) at 10uM": 16.8},
      {"compound": "CCc1ccc(S(=O)(=O)N2c3ccc(C)cc3C3CN(C)CCC32)cc1", "note": "(stereo not drawn)", "hERG current change (%, negative = inhibition) at 10uM": -60.4},
      {"compound": "COC(C[C@H]1O[C@H]1C(=O)[C@@H](C)OCc1ccccc1)OC", "hERG current change (%, negative = inhibition) at 10uM": 18.8},
      {"compound": "CCc1c(O)nc(SCC(=O)N2CCCCC2)n(-c2ccccc2C)c1=O", "hERG current change (%, negative = inhibition) at 10uM": 1.44},
      {"compound": "O=C(CSc1ncnc2ccccc12)c1ccco1", "hERG current change (%, negative = inhibition) at 10uM": 14.5},
      {"compound": "CN1CCN(c2oc(-c3ccccc3F)nc2S(=O)(=O)c2ccc(Cl)cc2)CC1", "hERG current change (%, negative = inhibition) at 10uM": -57.6},
      {"compound": "CCOc1ccc(-n2c(-c3ccccc3)c[n+]3c2CCCCC3)cc1.[Br-]", "hERG current change (%, negative = inhibition) at 10uM": -67}
    ]}
  ]
}
